Measurements from publication PMC5663917.
No constants are given. Whether binding was seen depends on the method and setting. Binding seen in cells or lysates may run through a third protein. Some entries that bind do so weakly or less than the wild type. For part of these data: Where a sequence is shown, tags or fusion partners need not be part of it.

Protein sequences, listed by entry. Tags and fused reporters are not part of them. Residues count along the entry.
UniProt Q14457: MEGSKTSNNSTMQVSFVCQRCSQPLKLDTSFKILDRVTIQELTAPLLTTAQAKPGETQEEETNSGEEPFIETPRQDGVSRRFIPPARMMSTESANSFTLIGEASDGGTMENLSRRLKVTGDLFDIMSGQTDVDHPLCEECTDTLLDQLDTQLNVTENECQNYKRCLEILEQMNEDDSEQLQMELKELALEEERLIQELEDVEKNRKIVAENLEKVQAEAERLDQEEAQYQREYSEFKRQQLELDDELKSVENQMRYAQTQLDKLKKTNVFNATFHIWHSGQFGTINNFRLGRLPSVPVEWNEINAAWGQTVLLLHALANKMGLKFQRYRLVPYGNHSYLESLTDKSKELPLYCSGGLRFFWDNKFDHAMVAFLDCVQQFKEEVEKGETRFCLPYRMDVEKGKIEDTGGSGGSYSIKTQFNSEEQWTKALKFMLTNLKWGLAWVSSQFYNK
UniProt Q9NT62: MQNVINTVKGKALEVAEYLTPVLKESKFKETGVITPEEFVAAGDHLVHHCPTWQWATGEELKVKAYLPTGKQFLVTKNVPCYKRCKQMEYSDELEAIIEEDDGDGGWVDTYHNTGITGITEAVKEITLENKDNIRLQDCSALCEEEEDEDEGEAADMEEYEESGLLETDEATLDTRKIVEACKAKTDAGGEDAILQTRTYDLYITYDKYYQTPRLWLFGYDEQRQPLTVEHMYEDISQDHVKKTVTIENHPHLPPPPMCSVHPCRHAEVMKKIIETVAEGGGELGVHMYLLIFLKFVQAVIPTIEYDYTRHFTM
UniProt P28068, residues 19-263: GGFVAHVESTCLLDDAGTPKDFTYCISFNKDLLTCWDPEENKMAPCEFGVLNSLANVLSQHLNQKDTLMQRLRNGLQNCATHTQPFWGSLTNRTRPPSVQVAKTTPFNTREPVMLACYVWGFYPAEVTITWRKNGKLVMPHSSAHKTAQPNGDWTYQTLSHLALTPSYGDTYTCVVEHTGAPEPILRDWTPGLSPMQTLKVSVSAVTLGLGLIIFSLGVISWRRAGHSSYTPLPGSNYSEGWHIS

Legend:
HA-tagged ATG7 (human) [1] = molecular target: T1, HA-tagged ATG7 (human) (UniProt O95352); experiment: co-IP; coimmunoprecipitation of DMA or DMB with ATG7 (Supplementary Fig. S3C); cells, tags and IP antibody not shown
T1 sequence: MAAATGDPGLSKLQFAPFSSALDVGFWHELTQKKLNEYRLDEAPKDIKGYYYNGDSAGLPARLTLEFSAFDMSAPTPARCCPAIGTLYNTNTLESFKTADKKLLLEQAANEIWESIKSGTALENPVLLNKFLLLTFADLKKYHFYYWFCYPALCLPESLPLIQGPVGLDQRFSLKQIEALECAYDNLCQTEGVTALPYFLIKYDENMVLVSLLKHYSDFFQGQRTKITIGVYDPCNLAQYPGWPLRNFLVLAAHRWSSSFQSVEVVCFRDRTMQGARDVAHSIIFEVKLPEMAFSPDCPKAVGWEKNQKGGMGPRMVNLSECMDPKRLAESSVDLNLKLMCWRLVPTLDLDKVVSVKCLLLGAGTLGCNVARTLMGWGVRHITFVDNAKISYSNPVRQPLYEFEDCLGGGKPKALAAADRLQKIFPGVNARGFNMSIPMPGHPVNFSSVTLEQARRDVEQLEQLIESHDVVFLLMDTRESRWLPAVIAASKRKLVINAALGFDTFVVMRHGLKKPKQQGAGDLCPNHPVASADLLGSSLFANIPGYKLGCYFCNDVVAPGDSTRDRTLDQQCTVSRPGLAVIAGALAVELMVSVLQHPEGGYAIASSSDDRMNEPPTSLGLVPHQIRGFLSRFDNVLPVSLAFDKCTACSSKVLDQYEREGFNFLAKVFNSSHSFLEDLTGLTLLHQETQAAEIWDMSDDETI

[2] = molecular target: HA-tagged Beclin1 (human) (UniProt Q14457); experiment: co-IP; HEK293T co-transfected with pcDNA3.1-DMB and HA-tagged ATG proteins; IP anti-HA, blot anti-DMB (Fig. 6A); for HA-ATG7 also IP anti-DMB, blot anti-HA (Fig. 6B); lysis buffer 1.0% Nonidet P40, 20 mM Tris-HCl pH 8.0, 10% glycerol, 150 mM NaCl; 4 °C
HA-tagged ATG7 (human) [3] = molecular target: T1, HA-tagged ATG7 (human); experiment: as above
HA-tagged ATG3 (human) = HA-tagged ATG3 (human) (UniProt Q9NT62); experiment: as above
[4] = molecular target: T2, endogenous ATG7 (human (endogenous in MT2 and PMA-THP1)) (UniProt O95352); experiment: co-IP; endogenous proteins, MT2 cell lysate; IP anti-ATG7, blot anti-DMB (Fig. 6C); for Sirt1 cells transfected with control siRNA or DMB siRNA (Supplementary Fig. S4C, IP antibody not shown)
T2 sequence: T1 sequence

[5] = molecular target: T2, endogenous ATG7 (human (endogenous in MT2 and PMA-THP1)); experiment: co-IP; endogenous proteins, lysate of PMA-THP1 cells co-cultured with MT2 cells for 24 h; IP anti-ATG7, blot anti-DMB (Fig. 6D); for Sirt1 cells transfected with control siRNA or DMB siRNA (Supplementary Fig. S4D, IP antibody not shown)

Substance | binding (HA-tagged ATG7 (human) [1]) | binding [2] | binding (HA-tagged ATG7 (human) [3]) | binding (HA-tagged ATG3 (human)) | binding [4] | binding [5]
HLA-DMB expressed from pcDNA3.1-DMB (from UniProt P28068 19-263) | binds | no binding | binds | no binding |  | 
endogenous HLA-DMB (from UniProt P28068 19-263) |  |  |  |  | binds | binds
